In PubChem BioAssay AID662 (National Center for Advancing Translational Sciences (NCATS), 2007):
The campaign covered roughly 71,000 compounds. About 1,800 (2.5%) were called active. The shares of active, inactive and inconclusive entries below differ from those in the screen. Calls come from the whole dose curve; as a rule, active = well fitted activation curve with a large enough effect in the signal ratio, with a control signal flat (not every such curve was filed as active); inconclusive = small, poorly fitted or top-dose-only effect, or effect the other way, or a change in a side signal; inactive = flat fitted curve, though single readings scatter; the % refers to the signal ratio. A potency beside an inconclusive call is a rough fit, not a confirmed value.
Potency is the fitted concentration of half-maximal effect; tags give direction and shape of the fitted curve.

Test: Cell signaling CRE-BLA (Fsk stim); for activity change, negative = inhibition: % of control where 0% means no effect
Conditions: CHO CRE-bla reporter (cAMP response element driving beta-lactamase), forskolin EC10, beta-lactamase ratio; activity change, negative = inhibition: at 38.2 µM (top of the series) unless noted
Summary of the method: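 Modulation of forskolin signalling: compounds in titration series added with EC10 NKH 477 to CHO cells carrying a CRE-driven beta-lactamase reporter, 3 h, 37C. CCF4 FRET ratio (460/530 nm, ex 405 nm) gives %activity and AC50.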
In the case of Cn1cc(/C=N/n2cnc3sc4c(c3c2=O)CCCC4)c2ccccc21, the activity change, negative = inhibition is reported as “inactive”. With CC1=CC2(C#N)C3(N=C(N)C2(C#N)C(c2ccccc2)N1)OCCO3 (centres undefined) the activity change, negative = inhibition was inconclusive: 0.245%. In the case of CC1CCCC(NC(=O)c2ccc3c(=O)n(CC4CCCO4)c(=O)[nH]c3c2)C1C (centres undefined), the activity change, negative = inhibition is reported as “inactive”. For COc1ccccc1C(=O)Nc1ccc(S(=O)(=O)N2CCOCC2)cc1, the Potency was inconclusive: 12.6 µM [rising, partial curve]. With COc1ccc2c3c(c(=O)oc2c1OCC(=O)C(C)(C)C)CCCC3 the Potency was inconclusive: 7.94 µM [rising, partial curve]. For Nc1nnc(SCc2cc3c(cc2Cl)OCO3)s1, the activity change, negative = inhibition was “inactive”. With O=C1c2ccccc2-c2ccc(C(=O)N3CCOCC3)cc21 the Potency was inconclusive: 10 µM [rising, partial curve]. With Cc1ccc(N2C(=O)C(Cl)=C(Nc3c(C)n(C)n(-c4ccccc4)c3=O)C2=O)cc1 the Potency was inconclusive: 10 µM [falling, partial curve]. For COc1ccc(F)cc1CN1CCN(C(=O)CCC(=O)Nc2nnc(C(C)C)s2)CC1, the activity change, negative = inhibition was “inactive”. With C=CCOC(=O)C1CC=CCC1C(=O)Oc1ccc(F)cc1F (centres undefined) the activity change, negative = inhibition was “inactive”. In the case of CCOC(=O)c1ncn2c1C(=O)OC2(C)C, the Potency is reported as inconclusive: 0.1 µM [falling, full curve, poor fit]. For Cc1ccc2oc(-c3ccccc3)c(O)c(=O)c2c1, the activity change, negative = inhibition was “inactive”. With Cc1ccc(NS(=O)(=O)c2ccc(C(=O)N3CCCN(C)CC3)cc2)cc1 the activity change, negative = inhibition was “inactive”. In the case of COc1ccccc1CNC(=O)C1COc2ccccc2O1 (centres undefined), the activity change, negative = inhibition is reported as “inactive”. In the case of O=C(O)c1cc(S(=O)(=O)N2CCOCC2)c(Sc2ccccn2)cc1Sc1ccccn1, the activity change, negative = inhibition is reported as “inactive”. For CCOC(=O)c1[nH]c2ccc(OC)cc2c1NC(=O)CN1CCC2(CC1)OCCO2, the Potency was active: 10 µM. In the case of O=C(CCC1N=C2c3ccccc3N=C(SCc3ccccc3Cl)N2C1=O)NCc1ccco1 (centres undefined), the activity change, negative = inhibition is reported as “inactive”. With Cc1noc(C)c1-c1nccc(NCc2ccccc2)n1 the Potency was inconclusive: 10 µM [rising, partial curve]. In the case of O=S(=O)(Nc1cccc(-c2cn3ccsc3n2)c1)c1ccc(F)cc1, the activity change, negative = inhibition is reported as “inactive”. In the case of Nc1nncn1C(=O)c1cccs1, the Potency is reported as inconclusive: 0.1 µM [falling, full curve]. For COc1ccc(C2C=C(c3ccc(Br)s3)Nc3ncnn32)cc1OC (centres undefined), the Potency was inconclusive: 25.1 µM [falling, single point]. For Cc1ccc(C)c(N2CCN(C(=O)c3cc(S(=O)(=O)N4CCOCC4)ccc3F)CC2)c1, the activity change, negative = inhibition was inconclusive: -8.91%. For Cc1cc(C(=O)NCCC2=CCCCC2)c(C)o1, the activity change, negative = inhibition was inconclusive: -15.7%. With CC1CCCC(C)N1C(=O)c1cc(-c2cccs2)on1 (centres undefined) the activity change, negative = inhibition was inconclusive: -11.8%.
